Test results published in the supplement of paper PMC10369915.
This is one part of the list. Cut-off read from the data, not from the text of the source: active = 3.2 or more and inactive = the rest. Only a few entries rise above the background.

Tests used:
Assay in all cases: enrichment score (SH2-bound / input frequency) (ratio); bacterial display of known human phosphotyrosine sites (pTyr-Var adds point mutants) read by sequencing; higher = stronger binding; tyrosines were phosphorylated by kinases first
Details in all cases: peptide library: pTyr-Var
[1] = biological target: SHP2 C-SH2 domain E139D
[2] = biological target: SHP2 C-SH2 domain wild-type
[3] = biological target: SHP2 N-SH2 domain L43F
[4] = biological target: SHP2 N-SH2 domain T42A
[5] = biological target: SHP2 N-SH2 domain T52S
[6] = biological target: SHP2 N-SH2 domain wild-type

Measured: enrichment score
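Note: displayed peptides selected on beads carrying the immobilized SH2 domain, with library peptides lacking any tyrosine serving as negative controls.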

GRRNTCFASIA [ACADM_Y352_Y352C_YF]
inactive: [1] 0.443 | [2] 0.345 | [3] 0.369 | [4] 0.462 | [5] 0.432 | [6] 0.394

KGELRYMHSPV [ABCD1_Y281_R285P]
inactive: [1] 1.27 | [2] 1.21 | [3] 1.22 | [4] 1.23 | [5] 1.04 | [6] 1.25

FSQQTYFPVSN [ABCD1_Y180_R182P_YF]
inactive: [1] 1.07 | [2] 1.2 | [3] 1.18 | [4] 0.997 | [5] 0.997 | [6] 1.09

QFLMKYVRSAS [ABCD1_Y337_W339R]
inactive: [1] 0.862 | [2] 0.578 | [3] 0.703 | [4] 0.588 | [5] 0.648 | [6] 0.641

FSQETYYRVSN [ABCD1_Y180_Q178E]
inactive: [1] 0.987 | [2] 0.842 | [3] 0.856 | [4] 0.897 | [5] 0.767 | [6] 0.954

VEKGSYSALRA [ABCC2_Y845_L849R]
inactive: [1] 0.689 | [2] 0.657 | [3] 0.67 | [4] 0.436 | [5] 0.579 | [6] 0.638

QFLMKYVWSAS [ABCD1_Y337]
inactive: [1] 1.62 | [2] 1.76 | [3] 1.43 | [4] 1.35 | [5] 1.56 | [6] 1.97

NLSVRYDSSLK [ABCC8_Y1353]
inactive: [1] 1.09 | [2] 0.95 | [3] 0.962 | [4] 0.987 | [5] 0.829 | [6] 1.09

LGRKLYSIAAP [ABHD12_Y345]
inactive: [1] 0.514 | [2] 0.491 | [3] 0.535 | [4] 0.339 | [5] 0.482 | [6] 0.611

SQQTYCRVSNM [ABCD1_Y181_Y181C]
inactive: [1] 0.81 | [2] 0.914 | [3] 0.752 | [4] 0.662 | [5] 0.711 | [6] 0.726

TSAEGYQDVRD [ABLIM1_Y439_P434T]
inactive: [1] 0.381 | [2] 0.296 | [3] 0.57 | [4] 0.449 | [5] 0.415 | [6] 0.566

GRRNTCYASIA [ACADM_Y352_Y352C]
inactive: [1] 0.347 | [2] 0.774 | [3] 0.383 | [4] 0.471 | [5] 0.433 | [6] 0.362

VGEGPYLLSDL [ABCC12_Y7_I9L]
inactive: [1] 0.616 | [2] 0.632 | [3] 0.615 | [4] 0.594 | [5] 0.707 | [6] 0.751

RRNTCYASIAK [ACADM_Y353_Y352C]
inactive: [1] 0.346 | [2] 0.796 | [3] 0.464 | [4] 0.441 | [5] 0.346 | [6] 0.474

ASMAKYYASGI [ACADSB_Y372_E376G]
inactive: [1] 0.687 | [2] 0.411 | [3] 0.604 | [4] 0.571 | [5] 0.741 | [6] 0.776

EMTAEYACTRK [ACAD9_Y325]
inactive: [1] 0.571 | [2] 0.499 | [3] 0.568 | [4] 0.719 | [5] 1.32 | [6] 0.65

SQQTFCRVSNM [ABCD1_Y181_Y181C_YF]
inactive: [1] 0.696 | [2] 0.628 | [3] 0.757 | [4] 0.639 | [5] 0.77 | [6] 0.849

QFLMMYVWSAS [ABCD1_Y337_K336M]
inactive: [1] 1.99 | [2] 2.27 | [3] 1.67 | [4] 1.79 | [5] 2.09 | [6] 2.09

FSQQTYYPVSN [ABCD1_Y180_R182P]
inactive: [1] 1.39 | [2] 0.997 | [3] 1.12 | [4] 0.779 | [5] 1.1 | [6] 1.07

FSQQTYFRVSN [ABCD1_Y180_YF]
inactive: [1] 1.21 | [2] 1.28 | [3] 1.36 | [4] 1.39 | [5] 1.1 | [6] 1.22

RVGNMYVRGLS [ABCG8_Y209]
inactive: [1] 0.675 | [2] 0.8 | [3] 0.521 | [4] 0.666 | [5] 0.663 | [6] 0.755

VGEGPYLISDL [ABCC12_Y7]
inactive: [1] 1.07 | [2] 0.928 | [3] 0.865 | [4] 0.702 | [5] 0.89 | [6] 0.948

NKPTVYGVSPN [ABL1_Y226]
inactive: [1] 0.689 | [2] 0.74 | [3] 0.787 | [4] 0.676 | [5] 0.691 | [6] 0.705

TSSAGYRRTPS [ABI1_Y333_G331A]
inactive: [1] 0.267 | [2] 0.127 | [3] 0.361 | [4] 0.16 | [5] 0.272 | [6] 0.181

TSSGGYRRTPS [ABI1_Y333]
inactive: [1] 0.245 | [2] 0.24 | [3] 0.197 | [4] 0.247 | [5] 0.28 | [6] 0.252

EQQDMYRLKVL [ABCC6_Y372_N370D]
inactive: [1] 0.508 | [2] 0.586 | [3] 0.668 | [4] 0.568 | [5] 0.647 | [6] 0.538

ASMAKYYASEI [ACADSB_Y372]
inactive: [1] 0.813 | [2] 0.659 | [3] 0.538 | [4] 0.49 | [5] 0.655 | [6] 0.741

SQQTYYPVSNM [ABCD1_Y181_R182P]
inactive: [1] 0.953 | [2] 0.818 | [3] 0.65 | [4] 0.8 | [5] 0.77 | [6] 0.772

SQQTFYRVSNM [ABCD1_Y181_YF]
inactive: [1] 0.865 | [2] 0.617 | [3] 1.17 | [4] 0.653 | [5] 0.678 | [6] 0.733

KGELCYMHSRV [ABCD1_Y281_R280C]
inactive: [1] 1.14 | [2] 0.829 | [3] 0.948 | [4] 0.794 | [5] 1.03 | [6] 0.838

QFLMKYVWSAP [ABCD1_Y337_S342P]
inactive: [1] 0.957 | [2] 0.847 | [3] 0.751 | [4] 0.806 | [5] 1.11 | [6] 1.3

SQQTYYRVSNM [ABCD1_Y181]
inactive: [1] 0.948 | [2] 0.783 | [3] 0.72 | [4] 0.608 | [5] 0.662 | [6] 0.871

ASMAKYFASEI [ACADSB_Y372_YF]
inactive: [1] 0.664 | [2] 0.551 | [3] 0.63 | [4] 0.78 | [5] 0.649 | [6] 0.799

SISLRYEGRVF [ABL1_Y167_YF]
inactive: [1] 1.6 | [2] 1.55 | [3] 1.41 | [4] 1.41 | [5] 1.72 | [6] 1.43

SISLRYEGRVY [ABL1_Y167]
inactive: [1] 1.4 | [2] 1.12 | [3] 1.38 | [4] 1.39 | [5] 1.21 | [6] 1.32

SISLKYEGRVF [ABL1_Y167_R166K_YF]
inactive: [1] 1.27 | [2] 1.29 | [3] 1.17 | [4] 1.29 | [5] 1.13 | [6] 1.28

DKTGEYPVPLI [ACADM_Y73]
inactive: [1] 0.774 | [2] 0.658 | [3] 0.722 | [4] 0.54 | [5] 0.688 | [6] 0.776
